Measurements from patent US20210127671A1, “HYPERSENSITIVE RESPONSE ELICITOR PEPTIDES AND USE THEREOF” (priority 2015, published 2021).
Not every detail of the peptide structures is certain; ends, links or a residue may be inferred. Marks after values point to notes of the source that are not given here. Some entries repeat one wording, which the source may state once for all of them. Peptide text beside a SMILES is read from it.

Tests used:
[1] = test system: tobacco mosaic virus (TMV); test: Induced resistance of tobacco to infection with tobacco mosaic virus; settings: % decline in TMV lesions vs UTC; for Effectiveness Covered (%): covered leaves (systemic response); for Effectiveness Uncovered (%): uncovered leaves (local response)
[2] = test system: Nicotiana tabacum cultivar xanthi plants; settings: result in words; HR test of Example 1
[3] = Stability against chemical degradation in water or pH buffers at 50° C. (HPLC); settings: 50° C.
Method: Briefly, the stability and resistance to chemical degradation of peptides can be assessed as follows using peptide samples having an initial purity of at least about 80%, at least about 82%, at least about 84%, at least about 86%, at least about 88%, at least about 90%, at least about 92%, at least about 94%, at least about 96%, or at least about 98%. For water stability, the peptide is dissolved directly in de-ionized water. For chemical degradation tests, the peptide is dissolved in an aqueous solution containing 50 mM pH buffer and 0.25% Proxel GXL. Exemplary pH buffers include, without limitation: (i) Citrate pH 5.6; (ii) MES pH 6.2; (iii) MOPS pH 6.5; (iv) imidazole pH 7.0; (v) Citrate pH 7.2; (vi) EDDS, pH 7.3; (vii) EDTA pH 8.0; (viii) sodium phosphate pH 8.0; or (ix) TES pH 8.0. Peptides are first dissolved in the aqueous solution at a concentration of 0.5 mg/ml. […] An initial sample of the peptide is removed, diluted 10× with water, and analyzed by reverse-phase HPLC. Briefly, 20 μl of the sample is injected into the solvent flow of an HPLC instrument and analyzed on a C18 HPLC column (YMC ProPack C18, YMC, Japan, or C18 Stablebond, Agilent Technologies, USA) using either a triethylamine phosphate in water/acetonitrile gradient or a 0.1% TFA in water/0.1% TFA in acetonitrile gradient to separate different peptide species. Eluting peptides are monitored by UV absorbance at 218 nm and quantified based on the area under the peak. The area under the peak for the initial peptide sample is treated as the standard for relative quantification in subsequent runs. At regular intervals (e.g., 1, 3, 7, 10, 14, 17, and 21 days), each peptide sample is surveyed and analyzed by HPLC as described above.
Stability against chemical degradation was assessed in various pH buffers by creating 0.2% AI solutions of pure, chemically synthesized peptide in deionized water, 0.25% weight to volume of Proxel® GXL (biocide), and 50 millimolar (mM) of eight buffers (separately) as follows: MES pH 5.6, MOPS pH 6.5, Citrate pH 7.2, EDDS pH 7.3, EDTA pH 8, Phosphate pH 8, Imidazole pH 8, and TES pH 8.

| Structure (SMILES) | elicitation of hypersensitive response (HR) in tobacco leaves [2] | also measured |
| --- | --- | --- |
| CC[C@H](C)[C@H](NC(=O)[C@H](CC(C)C)NC(=O)[C@H](CCC(=O)O)NC(=O)[C@H](CCC(=O)O)NC(=O)[C@H](CC(C)C)NC(=O)[C@H](CC(C)C)NC(=O)[C@H](CCC(=O)O)NC(=O)[C@H](CCC(=O)O)NC(=O)[C@H](CC(C)C)NC(=O)[C@H](CCC(=O)O)NC(=O)[C@H](CCC(=O)O)NC(=O)[C@@H](N)CO)C(=O)N[C@@H](CCC(=O)O)C(=O)N[C@@H](CCC(=O)O)C(=O)N[C@@H](CC(C)C)C(=O)N[C@@H](CC(C)C)C(=O)O [Peptide P30-2] (H-SEELEELLEELIEELL-OH; N-terminus and C-terminus assumed) | produced an HR response | Effectiveness Covered (%) ([1]; 10 ug/ml spray): 65* %; Effectiveness Uncovered (%) ([1]; 10 ug/ml spray): 94* % |
| CC(C)C[C@H](NC(=O)[C@H](CC(C)C)NC(=O)[C@H](CO)NC(=O)[C@H](CCCCN)NC(=O)[C@H](CC(C)C)NC(=O)[C@H](CC(C)C)NC(=O)[C@H](CCC(N)=O)NC(=O)[C@H](C)NC(=O)[C@H](CC(C)C)NC(=O)[C@H](CC(C)C)NC(=O)[C@H](CCC(N)=O)NC(=O)[C@H](C)NC(=O)[C@H](CC(C)C)NC(=O)[C@H](CCC(=O)O)NC(=O)[C@H](CCC(=O)O)NC(=O)[C@H](CCC(=O)O)NC(=O)[C@H](CCC(=O)O)NC(=O)[C@H](CCC(=O)O)NC(=O)[C@@H](N)CO)C(=O)O [Peptide P18-7] (H-SEEEEELAQLLAQLLKSLL-OH; N-terminus and C-terminus assumed) | elicited HR | Effectiveness Covered (%) ([1]; 20 ug/ml spray): 30* %; Effectiveness Uncovered (%) ([1]; 20 ug/ml spray): 15* % |
| CC[C@H](C)[C@H](NC(=O)[C@H](CC(C)C)NC(=O)[C@H](CCC(=O)O)NC(=O)[C@H](CCC(=O)O)NC(=O)[C@H](CC(C)C)NC(=O)[C@H](CC(C)C)NC(=O)[C@H](CCC(=O)O)NC(=O)[C@H](CCC(=O)O)NC(=O)[C@@H](N)CC(C)C)C(=O)N[C@@H](CCC(=O)O)C(=O)N[C@@H](CCC(=O)O)C(=O)N[C@@H](CC(C)C)C(=O)N[C@@H](CC(C)C)C(=O)O [Peptide P30-4] (H-LEELLEELIEELL-OH; N-terminus and C-terminus assumed) | produced an HR response |  |
| CC[C@H](C)[C@H](NC(=O)[C@H](CCC(=O)O)NC(=O)[C@H](CO)NC(=O)[C@H](Cc1ccccc1)NC(=O)[C@H](CC(C)C)NC(=O)[C@H](CCCCN)NC(=O)[C@H](CC(C)C)NC(=O)[C@H](CC(C)C)NC(=O)[C@H](CCC(N)=O)NC(=O)[C@H](CCC(N)=O)NC(=O)[C@H](CC(C)C)NC(=O)[C@H](CCC(=O)O)NC(=O)[C@H](CCC(=O)O)NC(=O)[C@H](CCC(=O)O)NC(=O)[C@H](CCC(=O)O)NC(=O)[C@H](CCC(=O)O)NC(=O)[C@@H](N)CO)C(=O)N[C@@H](CC(C)C)C(=O)N[C@@H](CCC(N)=O)C(=O)N[C@@H](CO)C(=O)O [Peptide P3-7] (H-SEEEEELQQLLKLFSEILQS-OH; N-terminus and C-terminus assumed) | cause HR |  |
| CC[C@H](C)[C@H](NC(=O)[C@H](CCCCN)NC(=O)[C@H](CC(C)C)NC(=O)[C@H](CC(C)C)NC(=O)[C@H](CCCCN)NC(=O)[C@H](CCC(N)=O)NC(=O)[C@H](CC(C)C)NC(=O)[C@H](CCC(=O)O)NC(=O)[C@H](CCC(=O)O)NC(=O)[C@H](CCC(=O)O)NC(=O)[C@H](CCC(=O)O)NC(=O)[C@H](CCC(=O)O)NC(=O)[C@@H](N)CO)C(=O)N[C@@H](CC(C)C)C(=O)N[C@@H](CCC(=O)O)C(=O)N[C@@H](C)C(=O)N[C@@H](CC(C)C)C(=O)N[C@H](C(=O)N[C@@H](CCC(N)=O)C(=O)O)C(C)C [Peptide P25-17] (H-SEEEEELQKLLKILEALVQ-OH; N-terminus and C-terminus assumed) | very weak hypersensitive response |  |
| CC[C@H](C)[C@H](NC(=O)[C@H](CCC(=O)O)NC(=O)[C@H](CO)NC(=O)[C@H](Cc1ccccc1)NC(=O)[C@H](CC(C)C)NC(=O)[C@H](CCCCN)NC(=O)[C@H](CC(C)C)NC(=O)[C@H](CC(C)C)NC(=O)[C@H](CCC(N)=O)NC(=O)[C@H](CCC(N)=O)NC(=O)[C@H](CC(C)C)NC(=O)[C@H](CCC(=O)O)NC(=O)[C@H](CCC(=O)O)NC(=O)[C@H](CCC(=O)O)NC(=O)[C@H](CCC(=O)O)NC(=O)[C@H](CCC(=O)O)NC(=O)[C@@H](N)CO)C(=O)N[C@@H](CC(C)C)C(=O)N[C@@H](CCC(N)=O)C(=O)N[C@@H](CO)C(=O)N[C@@H](CC(C)C)C(=O)O [Peptide P3-6] (H-SEEEEELQQLLKLFSEILQSL-OH; N-terminus and C-terminus assumed) | cause HR |  |
| CC[C@H](C)[C@H](NC(=O)CNC(=O)[C@H](CCC(N)=O)NC(=O)[C@@H](N)CO)C(=O)N[C@@H](CO)C(=O)N[C@@H](CCC(=O)O)C(=O)N[C@@H](CCCCN)C(=O)N[C@@H](CCC(N)=O)C(=O)N[C@@H](CC(C)C)C(=O)N[C@@H](CC(=O)O)C(=O)N[C@@H](CCC(N)=O)C(=O)N[C@@H](CC(C)C)C(=O)N[C@@H](CC(C)C)C(=O)N[C@@H](CS)C(=O)N[C@@H](CCC(N)=O)C(=O)N[C@@H](CC(C)C)C(=O)N[C@H](C(=O)N[C@@H](CCC(N)=O)C(=O)N[C@@H](C)C(=O)N[C@@H](CC(C)C)C(=O)N[C@@H](CC(C)C)C(=O)N[C@@H](CCC(N)=O)C(=O)N1CCC[C@H]1C(=O)O)[C@@H](C)CC [Peptide P4] (H-SQGISEKQLDQLLCQLIQALLQP-OH; N-terminus and C-terminus assumed) |  | days over 80% of time 0 peptide signal ([3]; 0.2% AI, 0.25% Proxel GXL, 50 mM buffers): 3 days; time after which the original HPLC peak was not detected ([3]; water and 50 mM buffers, FIGS. 12-21): less than 1 day; Effectiveness Covered (%) ([1]; 20 ug/ml spray): 89* %; Effectiveness Uncovered (%) ([1]; 20 ug/ml spray): 88* % |
| CC[C@H](C)[C@H](NC(=O)[C@H](CCCCN)NC(=O)[C@H](CC(C)C)NC(=O)[C@H](CC(C)C)NC(=O)[C@H](CCCCN)NC(=O)[C@H](CCC(N)=O)NC(=O)[C@H](CC(C)C)NC(=O)[C@@H](NC(=O)[C@H](CCC(=O)O)NC(=O)[C@H](CCC(=O)O)NC(=O)[C@H](CCC(=O)O)NC(=O)[C@H](CCC(=O)O)NC(=O)[C@H](CCC(=O)O)NC(=O)[C@@H](N)CO)C(C)C)C(=O)N[C@@H](CC(C)C)C(=O)N[C@@H](CCC(=O)O)C(=O)N[C@@H](C)C(=O)N[C@@H](CC(C)C)C(=O)N[C@H](C(=O)O)C(C)C [Peptide P25-16] (H-SEEEEEVLQKLLKILEALV-OH; N-terminus and C-terminus assumed) | very weak hypersensitive response |  |
| CC[C@H](C)[C@H](NC(=O)[C@H](CCCCN)NC(=O)[C@H](CC(C)C)NC(=O)[C@H](CC(C)C)NC(=O)[C@H](CCCCN)NC(=O)[C@H](CCC(N)=O)NC(=O)[C@H](CC(C)C)NC(=O)[C@@H](NC(=O)CNC(=O)[C@@H](NC(=O)[C@H](CC(C)C)NC(=O)[C@@H](NC(=O)[C@H](CC(C)C)NC(=O)[C@H](CCC(=O)O)NC(=O)[C@H](CCC(=O)O)NC(=O)[C@H](CCC(=O)O)NC(=O)[C@H](CCC(=O)O)NC(=O)[C@H](CCC(=O)O)NC(=O)[C@@H](N)CO)[C@@H](C)O)[C@@H](C)O)C(C)C)C(=O)N[C@@H](CC(C)C)C(=O)N[C@@H](CCC(=O)O)C(=O)N[C@@H](C)C(=O)O [Peptide P25-15] (H-SEEEEELTLTGVLQKLLKILEA-OH; N-terminus and C-terminus assumed) | very weak hypersensitive response |  |
